About 14,000 (4.5%) of roughly 310,000 compounds showed an effect of 50% or more. Effects have a minus sign here. The list shows a part of the results.
Target: human ether-à-go-go-related gene (hERG) potassium channel (human, UniProt Q12809)
Test: primary screen, population patch clamp on CHO cells stably expressing hERG
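Note: peak tail current of the secondary pulse compared with the same well before compound.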

Chain of human ether-à-go-go-related gene (hERG) potassium channel (Q12809 whole entry, looked up): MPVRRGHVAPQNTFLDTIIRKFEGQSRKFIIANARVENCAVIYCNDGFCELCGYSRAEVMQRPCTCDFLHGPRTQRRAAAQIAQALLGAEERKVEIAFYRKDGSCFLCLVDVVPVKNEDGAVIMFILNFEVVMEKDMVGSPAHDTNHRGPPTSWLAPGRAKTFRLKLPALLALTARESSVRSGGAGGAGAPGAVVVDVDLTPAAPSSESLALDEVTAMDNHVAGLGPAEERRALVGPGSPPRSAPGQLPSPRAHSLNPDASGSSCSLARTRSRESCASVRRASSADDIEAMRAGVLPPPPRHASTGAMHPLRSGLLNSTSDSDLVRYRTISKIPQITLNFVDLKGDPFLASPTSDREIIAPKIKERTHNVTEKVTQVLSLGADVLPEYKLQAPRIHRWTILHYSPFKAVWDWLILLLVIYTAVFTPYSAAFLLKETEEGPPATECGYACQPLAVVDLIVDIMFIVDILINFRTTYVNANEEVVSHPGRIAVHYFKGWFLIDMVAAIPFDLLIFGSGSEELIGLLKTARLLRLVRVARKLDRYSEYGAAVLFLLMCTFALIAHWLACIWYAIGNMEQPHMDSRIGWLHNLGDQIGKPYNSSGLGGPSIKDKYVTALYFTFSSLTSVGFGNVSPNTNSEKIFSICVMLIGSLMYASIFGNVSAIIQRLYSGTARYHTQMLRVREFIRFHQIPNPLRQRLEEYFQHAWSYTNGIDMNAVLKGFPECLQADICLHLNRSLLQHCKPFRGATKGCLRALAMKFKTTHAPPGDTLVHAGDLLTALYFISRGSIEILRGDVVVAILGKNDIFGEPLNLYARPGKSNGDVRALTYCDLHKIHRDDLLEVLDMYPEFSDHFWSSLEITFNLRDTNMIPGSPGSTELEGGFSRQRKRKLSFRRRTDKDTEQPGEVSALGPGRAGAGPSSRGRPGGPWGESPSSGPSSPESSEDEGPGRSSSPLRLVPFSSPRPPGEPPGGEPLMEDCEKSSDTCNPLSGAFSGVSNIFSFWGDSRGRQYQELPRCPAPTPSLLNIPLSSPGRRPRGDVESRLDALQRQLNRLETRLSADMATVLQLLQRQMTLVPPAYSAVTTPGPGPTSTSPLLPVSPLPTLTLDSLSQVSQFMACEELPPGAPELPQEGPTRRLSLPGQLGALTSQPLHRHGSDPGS

Compound | hERG current change (%, negative = inhibition) at 10uM [%]
CSc1ccccc1NC(=O)CN(C)CC(=O)Nc1ccc(N2CCOCC2)cc1 | 18.9
COC(=O)C1C(c2ccc(Br)cc2)Nc2nnc(C(F)(F)F)n2C1(C)O.Cl (stereo not shown) | 26.1
O=C(O)Cc1ccc(NC(=O)Cc2ccc3ccccc3c2)cc1 | 12.8
COc1ccc(S(=O)(=O)NCC2CCC(C(=O)NCCCN3CCCC3=O)CC2)cc1 (stereo not shown) | 16.8
COc1ccc([N+](=O)[O-])cc1N(CC(O)CN(CC(C)C)CC(C)C)S(=O)(=O)c1ccccc1 (stereo not shown) | -1.91
CCCN1Cc2cccc(C(=O)NCCc3cccc(C)c3)c2C1=O | -33
Cc1cc(Nc2ccc(C)c(C)c2)c2ccccc2n1 | -66.9
Nn1cc(-c2ccccc2)nc1SCC(=O)N1CCN(S(=O)(=O)c2ccc(Cl)cc2)CC1 | -5.18
Cc1ccc(/C=N/NC(=O)c2ccc3nc[nH]c3c2)o1 | 10.6
COc1ccc2c(=O)cc(-c3cccnc3)oc2c1OC | 8.9
CCC(C)(C)n1c(=O)[nH]c2c(c1=O)CCC2 | 6.59
CC(C)(C)OC(=O)N1CCN(c2ccc(CNC(=O)c3ccc(Cl)cc3)cc2)CC1 | -9.78
Cc1ccc(C(=O)Nc2ccc(NC(=O)c3ccco3)c(C)c2)cc1 | 14.7
Cc1ccccc1NC(=O)c1ccc(NC(=O)C2CCCO2)cc1 (stereo not shown) | 6.18
O=[N+]([O-])c1ccc(S(=O)(=O)Nc2cccc(-c3ccc(N4CCCC4)nn3)c2)cc1 | 1.96
CCN(Cc1ccccc1)Cc1nnnn1Cc1ccccc1 | -18.7
CC(=O)c1cccc(NC(=O)/C(=C\c2ccco2)NC(=O)c2cccs2)c1 | -9.8
CN(C(=O)c1ccccc1Br)C1CCS(=O)(=O)C1 (stereo not shown) | -3.44
Cc1ccc(C)c(CN2CCC(n3nccc3NC(=O)CCCc3ccccc3)CC2)c1 | -54.8
Cc1ccc(NC(=O)N(C)c2ccccc2)cc1 | 13.3
COc1ccc(CCNS(=O)(=O)c2ccc3c(c2)OCCO3)cc1OC | 15
CCCNC(=O)c1nc2ncc(Br)cn2n1 | -31.1
COCCCN1C(=O)N(c2ccccc2)C(=O)C1CC(=O)Nc1ccc(F)cc1 (stereo not shown) | 15.8
CC1CC(C)(C)N(C(=O)CN2C(=O)CCC2=O)c2ccccc21 (stereo not shown) | 8.35
CCCCCCCNC(=O)C1(CC2CC(c3ccc(Cl)cc3)=NO2)CCN(C(=O)c2cc(OCC)c(OCC)c(OCC)c2)CC1 (stereo not shown) | 17.6

Source: publication PMC4336329 (PLoS ONE, 2015)
